Drawing on the supplement of paper PMC12423691, this text covers AlphaScreen luminescence signal for eleven molecules.

The chains are these.
B1: ZNF205, O95201 (protein)
chain: MSADGGGIQDTQDKETPPEVPDRGHPHQEMPSKLGEAVPSGDTQESLHIKMEPEEPHSEGASQEDGAQGAWGWAPLSHGSKEKALFLPGGALPSPRIPVLSREGRTRDRQMAAALLTAWSQMPVTFEDVALYLSREEWGRLDHTQQNFYRDVLQKKNGLSLGFPFSRPFWAPQAHGKGEASGSSRQAGDEKEWRGACTGAVEVGQRVQTSSVAALGNVKPFRTRAGRVQWGVPQCAQEAACGRSSGPAKDSGQPAEPDRTPDAAPPDPSPTEPQEYRVPEKPNEEEKGAPESGEEGLAPDSEVGRKSYRCEQCGKGFSWHSHLVTHRRTHTGEKPYACTDCGKRFGRSSHLIQHQIIHTGEKPYTCPACRKSFSHHSTLIQHQRIHTGEKPYVCDRCAKRFTRRSDLVTHQGTHTGAKPHKCPICAKCFTQSSALVTHQRTHTGVKPYPCPECGKCFSQRSNLIAHNRTHTGEKPYHCLDCGKSFSHSSHLTAHQRTHRGVRPYACPLCGKSFSRRSNLHRHEKIHTTGPKALAMLMLGAAAAGALATPPPAPT
B2: RWDD3, Q9Y3V2 (protein)
chain: MAEPVQEELSVLAAIFCRPHEWEVLSRSETDGTVFRIHTKAEGFMDVDIPLELVFHLPVNYPSCLPGISINSEQLTRAQCVTVKENLLEQAESLLSEPMVHELVLWIQQNLRHILSQPETGSGSEKCTFSTSTTMDDGLWITLLHLDHMRAKTKYVKIVEKWASDLRLTGRLMFMGKIILILLQGDRNNLKEYLILQKTSKVDVDSSGKKCKEKMISVLFETKVQTEHKRFLAFEVKEYSALDELQKEFETAGLKKLFSEFVLALVK
B3: NEUROD2, Q15784 (protein)
chain: MLTRLFSEPGLLSDVPKFASWGDGEDDEPRSDKGDAPPPPPPAPGPGAPGPARAAKPVPLRGEEGTEATLAEVKEEGELGGEEEEEEEEEEGLDEAEGERPKKRGPKKRKMTKARLERSKLRRQKANARERNRMHDLNAALDNLRKVVPCYSKTQKLSKIETLRLAKNYIWALSEILRSGKRPDLVSYVQTLCKGLSQPTTNLVAGCLQLNSRNFLTEQGADGAGRFHGSGGPFAMHPYPYPCSRLAGAQCQAAGGLGGGAAHALRTHGYCAAYETLYAAAGGGGASPDYNSSEYEGPLSPPLCLNGNFSLKQDSSPDHEKSYHYSMHYSALPGSRPTGHGLVFGSSAVRGGVHSENLLSYDMHLHHDRGPMYEELNAFFHN
B4: NKX2-1, P43699 (protein)
chain: MSMSPKHTTPFSVSDILSPLEESYKKVGMEGGGLGAPLAAYRQGQAAPPTAAMQQHAVGHHGAVTAAYHMTAAGVPQLSHSAVGGYCNGNLGNMSELPPYQDTMRNSASGPGWYGANPDPRFPAISRFMGPASGMNMSGMGGLGSLGDVSKNMAPLPSAPRRKRRVLFSQAQVYELERRFKQQKYLSAPEREHLASMIHLTPTQVKIWFQNHRYKMKRQAKDKAAQQQLQQDSGGGGGGGGTGCPQQQQAQQQSPRRVAVPVLVKDGKPCQAGAPAPGAASLQGHAQQQAQHQAQAAQAAAAAISVGSGGAGLGAHPGHQPGSAGQSPDLAHHAASPAALQGQVSSLSHLNSSGSDYGTMSCSTLLYGRTW
B5: GPBP1L1, Q9HC44 (protein)
chain: MAQHDFVPAWLNFSTPQSAKSPTATFEKHGEHLPRGEGRFGVSRRRHNSSDGFFNNGPLRTAGDSWHQPSLFRHDSVDSGVSKGAYAGITGNPSGWHSSSRGHDGMSQRSGGGTGNHRHWNGSFHSRKGCAFQEKPPMEIREEKKEDKVEKLQFEEEDFPSLNPEAGKQHQPCRPIGTPSGVWENPPSAKQPSKMLVIKKVSKEDPAAAFSAAFTSPGSHHANGNKLSSVVPSVYKNLVPKPVPPPSKPNAWKANRMEHKSGSLSSSRESAFTSPISVTKPVVLASGAALSSPKESPSSTTPPIEISSSRLTKLTRRTTDRKSEFLKTLKDDRNGDFSENRDCDKLEDLEDNSTPEPKENGEEGCHQNGLALPVVEEGEVLSHSLEAEHRLLKAMGWQEYPENDENCLPLTEDELKEFHMKTEQLRRNGFGKNGFLQSRSSSLFSPWRSTCKAEFEDSDTETSSSETSDDDAWK
B6: ISL1, P61371 (protein)
chain: MGDMGDPPKKKRLISLCVGCGNQIHDQYILRVSPDLEWHAACLKCAECNQYLDESCTCFVRDGKTYCKRDYIRLYGIKCAKCSIGFSKNDFVMRARSKVYHIECFRCVACSRQLIPGDEFALREDGLFCRADHDVVERASLGAGDPLSPLHPARPLQMAAEPISARQPALRPHVHKQPEKTTRVRTVLNEKQLHTLRTCYAANPRPDALMKEQLVEMTGLSPRVIRVWFQNKRCKDKKRSIMMKQLQQQQPNDKTNIQGMTGTPMVAASPERHDGGLQANPVEVQSYQPPWKVLSDFALQSDIDQPAFQQLVNFSEGGPGSNSTGSEVASMSSQLPDTPNSMVASPIEA
B7: HDAC3, O15379 (protein)
chain: MAKTVAYFYDPDVGNFHYGAGHPMKPHRLALTHSLVLHYGLYKKMIVFKPYQASQHDMCRFHSEDYIDFLQRVSPTNMQGFTKSLNAFNVGDDCPVFPGLFEFCSRYTGASLQGATQLNNKICDIAINWAGGLHHAKKFEASGFCYVNDIVIGILELLKYHPRVLYIDIDIHHGDGVQEAFYLTDRVMTVSFHKYGNYFFPGTGDMYEVGAESGRYYCLNVPLRDGIDDQSYKHLFQPVINQVVDFYQPTCIVLQCGADSLGCDRLGCFNLSIRGHGECVEYVKSFNIPLLVLGGGGYTVRNVARCWTYETSLLVEEAISEELPYSEYFEYFAPDFTLHPDVSTRIENQNSRQYLDQIRQTIFENLKMLNHAPSVQIHDVPADLLTYDRTDEADAEERGPEENYSRPEAPNEFYDGDHDNDKESDVEI
B8: ZNF18, P17022 (protein)
chain: MPVDLGQALGLLPSLAKAEDSQFSESDAALQEELSSPETARQLFRQFRYQVMSGPHETLKQLRKLCFQWLQPEVHTKEQILEILMLEQFLTILPGEIQMWVRKQCPGSGEEAVTLVESLKGDPQRLWQWISIQVLGQDILSEKMESPSCQVGEVEPHLEVVPQELGLENSSSGPGELLSHIVKEESDTEAELALAASQPARLEERLIRDQDLGASLLPAAPQEQWRQLDSTQKEQYWDLMLETYGKMVSGAGISHPKSDLTNSIEFGEELAGIYLHVNEKIPRPTCIGDRQENDKENLNLENHRDQELLHASCQASGEVPSQASLRGFFTEDEPGCFGEGENLPEALQNIQDEGTGEQLSPQERISEKQLGQHLPNPHSGEMSTMWLEEKRETSQKGQPRAPMAQKLPTCRECGKTFYRNSQLIFHQRTHTGETYFQCTICKKAFLRSSDFVKHQRTHTGEKPCKCDYCGKGFSDFSGLRHHEKIHTGEKPYKCPICEKSFIQRSNFNRHQRVHTGEKPYKCSHCGKSFSWSSSLDKHQRSHLGKKPFQ
B9: FOXH1, O75593 (protein)
chain: MGPCSGSRLGPPEAESPSQPPKRRKKRYLRHDKPPYTYLAMIALVIQAAPSRRLKLAQIIRQVQAVFPFFREDYEGWKDSIRHNLSSNRCFRKVPKDPAKPQAKGNFWAVDVSLIPAEALRLQNTALCRRWQNGGARGAFAKDLGPYVLHGRPYRPPSPPPPPSEGFSIKSLLGGSGEGAPWPGLAPQSSPVPAGTGNSGEEAVPTPPLPSSERPLWPLCPLPGPTRVEGETVQGGAIGPSTLSPEPRAWPLHLLQGTAVPGGRSSGGHRASLWGQLPTSYLPIYTPNVVMPLAPPPTSCPQCPSTSPAYWGVAPETRGPPGLLCDLDALFQGVPPNKSIYDVWVSHPRDLAAPGPGWLLSWCSL
B10: IKBKB, O14920 (protein)
chain: MSWSPSLTTQTCGAWEMKERLGTGGFGNVIRWHNQETGEQIAIKQCRQELSPRNRERWCLEIQIMRRLTHPNVVAARDVPEGMQNLAPNDLPLLAMEYCQGGDLRKYLNQFENCCGLREGAILTLLSDIASALRYLHENRIIHRDLKPENIVLQQGEQRLIHKIIDLGYAKELDQGSLCTSFVGTLQYLAPELLEQQKYTVTVDYWSFGTLAFECITGFRPFLPNWQPVQWHSKVRQKSEVDIVVSEDLNGTVKFSSSLPYPNNLNSVLAERLEKWLQLMLMWHPRQRGTDPTYGPNGCFKALDDILNLKLVHILNMVTGTIHTYPVTEDESLQSLKARIQQDTGIPEEDQELLQEAGLALIPDKPATQCISDGKLNEGHTLDMDLVFLFDNSKITYETQISPRPQPESVSCILQEPKRNLAFFQLRKVWGQVWHSIQTLKEDCNRLQQGQRAAMMNLLRNNSCLSKMKNSMASMSQQLKAKLDFFKTSIQIDLEKYSEQTEFGITSDKLLLAWREMEQAVELCGRENEVKLLVERMMALQTDIVDLQRSPMGRKQGGTLDDLEEQARELYRRLREKPRDQRTEGDSQEMVRLLLQAIQSFEKKVRVIYTQLSKTVVCKQKALELLPKVEEVVSLMNEDEKTVVRLQEKRQKELWNLLKIACSKVRGPVSGSPDSMNASRLSQPGQLMSQPSTASNSLPEPAKKSEELVAEAHNLCTLLENAIQDTVREQDQSFTALDWSWLQTEEEEHSCLEQAS
B11: CEBPD, P49716 (protein)
chain: MSAALFSLDGPARGAPWPAEPAPFYEPGRAGKPGRGAEPGALGEPGAAAPAMYDDESAIDFSAYIDSMAAVPTLELCHDELFADLFNSNHKAGGAGPLELLPGGPARPLGPGPAAPRLLKREPDWGDGDAPGSLLPAQVAACAQTVVSLAAAGQPTPPTSPEPPRSSPRQTPAPGPAREKSAGKRGPDRGSPEYRQRRERNNIAVRKSRDKAKRRNQEMQQKLVELSAENEKLHQRVEQLTRDLAGLRQFFKQLPSPPFLPAAGTADCR

The other results are listed elsewhere or left out. Binding of human transcription factors and regulators to the viral nucleoprotein by AlphaScreen, crude cell-free proteins, amounts not normalised, one pass. Fold of the Venus control; higher = more signal. No active / inactive call. Single-pass screen; sequences are the whole Swiss-Prot entries looked up by name.

The test deals with nucleoprotein N of Crimean-Congo hemorrhagic fever virus. The test is described as follows: AlphaScreen luminescence signal relative to Venus negative control (fold); higher = stronger binding to CCHFV N. The method, then:
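AlphaScreen binding of cell-free made, FLAG-GST-tagged human transcription factors and regulators (crude translation products) to biotinylated N protein; signal as fold of the FLAG-GST-Venus control. One pass.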
Background: In Alpha technology, singlet oxygen from a donor bead excites a nearby acceptor bead.
B1 had an AlphaScreen luminescence signal of 1.77.

The molecule B2 had an AlphaScreen luminescence signal of 1.58.

Consider B3, for which the AlphaScreen luminescence signal is 3.72.

For B4, the AlphaScreen luminescence signal came out at 2.74.

Molecule B5 registered an AlphaScreen luminescence signal of 10.2.

As to B6, the AlphaScreen luminescence signal stood at 1.67.

As to B7, the AlphaScreen luminescence signal came to 1.67.

Regarding B8, the AlphaScreen luminescence signal worked out at 1.53.

B9 came in with an AlphaScreen luminescence signal of 1.81.

B10 returned an AlphaScreen luminescence signal of 2.23.

On to B11, for which the AlphaScreen luminescence signal was 2.65.
